# Reference: the supplement of paper PMC8728848
# This is one part of the list.
# Assays:
# Assay in all cases: glycan array binding signal (z-score within array); higher = stronger binding
# Conditions in all cases: glycan notation: IUPAC condensed, linker removed
# [1] = target: Gal(b1-4)GlcNAc(b1-6)GalNAc
# Procedure, shortened: (§1)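 Arrays were curated from the Consortium for Functional Glycomics database, 3228 in total, and kept only where the protein sequence was available. Binding is expressed as a within-array Z-score. This score was averaged across arrays of the same protein sequence at different concentrations or buffers and across linkers, and negative values can be read as non-binding.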
# [2] = target: Gal(b1-4)GlcNAc(b1-6)[Gal(b1-3)]GalNAc
# Procedure, shortened: as §1
# [3] = target: Gal(b1-4)GlcNAc(b1-6)[Gal(b1-3)]GlcNAc
# Procedure, shortened: as §1
# Gal3S(b1-3)GalNAc = target: Gal3S(b1-3)GalNAc
# Procedure, shortened: as §1
# Gal3S(b1-3)GlcNAc = target: Gal3S(b1-3)GlcNAc
# Procedure, shortened: as §1
# [4] = target: Gal3S(b1-3)[Fuc(a1-4)]GlcNAc
# Procedure, shortened: as §1
# Gal3S(b1-4)Glc = target: Gal3S(b1-4)Glc
# Procedure, shortened: as §1
# Gal3S(b1-4)Glc6S = target: Gal3S(b1-4)Glc6S
# Procedure, shortened: as §1
# Gal3S(b1-4)GlcNAc = target: Gal3S(b1-4)GlcNAc
# Procedure, shortened: as §1
# Gal3S(b1-4)GlcNAc6S = target: Gal3S(b1-4)GlcNAc6S
# Procedure, shortened: as §1
# Gal3S6S(b1-4)GlcNAc = target: Gal3S6S(b1-4)GlcNAc
# Procedure, shortened: as §1
# Gal3S6S(b1-4)GlcNAc6S = target: Gal3S6S(b1-4)GlcNAc6S
# Procedure, shortened: as §1
# Gal4S(b1-4)GlcNAc = target: Gal4S(b1-4)GlcNAc
# Procedure, shortened: as §1
# Gal4S6S(b1-4)GlcNAc = target: Gal4S6S(b1-4)GlcNAc
# Procedure, shortened: as §1
# Gal6S(b1-4)Glc = target: Gal6S(b1-4)Glc
# Procedure, shortened: as §1
# Gal6S(b1-4)Glc6S = target: Gal6S(b1-4)Glc6S
# Procedure, shortened: as §1
# Gal6S(b1-4)GlcNAc = target: Gal6S(b1-4)GlcNAc
# Procedure, shortened: as §1
# GalNAc(a1-3)Gal = target: GalNAc(a1-3)Gal
# Procedure, shortened: as §1
# GalNAc(a1-3)GalNAc = target: GalNAc(a1-3)GalNAc
# Procedure, shortened: as §1
# [5] = target: GalNAc(b1-3)Gal(a1-4)Gal(b1-4)GlcNAc
# Procedure, shortened: as §1
# GalNAc(b1-4)GlcNAc = target: GalNAc(b1-4)GlcNAc
# Procedure, shortened: as §1
# Glc(a1-4)Glc = target: Glc(a1-4)Glc
# Procedure, shortened: as §1
# Glc(a1-6)Glc(a1-6)Glc = target: Glc(a1-6)Glc(a1-6)Glc
# Procedure, shortened: as §1
# Glc(b1-4)Glc = target: Glc(b1-4)Glc
# Procedure, shortened: as §1
# Glc(b1-6)Glc = target: Glc(b1-6)Glc
# Procedure, shortened: as §1
# GlcA(b1-3)Gal = target: GlcA(b1-3)Gal
# Procedure, shortened: as §1
# GlcA(b1-6)Gal = target: GlcA(b1-6)Gal
# Procedure, shortened: as §1
# [6] = target: GlcNAc(a1-3)Gal(b1-4)GlcNAc
# Procedure, shortened: as §1
# [7] = target: GlcNAc(a1-6)Gal(b1-4)GlcNAc
# Procedure, shortened: as §1
# [8] = target: GlcNAc(b1-2)Gal(b1-3)GlcNAc
# Procedure, shortened: as §1
# [9] = target: GlcNAc(b1-2)Man(a1-3)[GlcNAc(b1-2)Man(a1-6)]Man(b1-4)GlcNAc(b1-4)GlcNAc
# Procedure, shortened: as §1
# GlcNAc(b1-3)Gal = target: GlcNAc(b1-3)Gal
# Procedure, shortened: as §1
# [10] = target: GlcNAc(b1-3)Gal(b1-3)GalNAc
# Procedure, shortened: as §1
# GlcNAc(b1-3)Gal(b1-4)Glc = target: GlcNAc(b1-3)Gal(b1-4)Glc
# Procedure, shortened: as §1
# [11] = target: GlcNAc(b1-3)Gal(b1-4)GlcNAc
# Procedure, shortened: as §1
# [12] = target: GlcNAc(b1-3)Gal(b1-4)GlcNAc(b1-3)Gal(b1-4)GlcNAc
# Procedure, shortened: as §1
# GlcNAc(b1-3)GalNAc = target: GlcNAc(b1-3)GalNAc
# Procedure, shortened: as §1
# [13] = target: GlcNAc(b1-3)[GlcNAc(b1-4)][GlcNAc(b1-6)]GlcNAc
# Procedure, shortened: as §1
# [14] = target: GlcNAc(b1-3)[GlcNAc(b1-6)]Gal(b1-4)GlcNAc
# Procedure, shortened: as §1
# [15] = target: GlcNAc(b1-3)[GlcNAc(b1-6)]GlcNAc
# Procedure, shortened: as §1
# [16] = target: GlcNAc(b1-4)Gal(b1-4)GlcNAc
# Procedure, shortened: as §1
# [17] = target: GlcNAc(b1-4)GlcNAc(b1-4)GlcNAc
# Procedure, shortened: as §1
# [18] = target: GlcNAc(b1-4)GlcNAc(b1-4)GlcNAc(b1-4)GlcNAc(b1-4)GlcNAc
# Procedure, shortened: as §1
# [19] = target: GlcNAc(b1-4)GlcNAc(b1-4)GlcNAc(b1-4)GlcNAc(b1-4)GlcNAc(b1-4)GlcNAc
# Procedure, shortened: as §1
# [20] = target: GlcNAc(b1-4)[GlcNAc(b1-6)]GalNAc
# Procedure, shortened: as §1
# [21] = target: GlcNAc(b1-6)Gal(b1-4)GlcNAc
# Procedure, shortened: as §1
# GlcNAc(b1-6)GalNAc = target: GlcNAc(b1-6)GalNAc
# Procedure, shortened: as §1
# Kdn(a2-3)Gal(b1-3)GlcNAc = target: Kdn(a2-3)Gal(b1-3)GlcNAc
# Procedure, shortened: as §1
# Kdn(a2-3)Gal(b1-4)GlcNAc = target: Kdn(a2-3)Gal(b1-4)GlcNAc
# Procedure, shortened: as §1
# [22] = target: Man(a1-2)Man(a1-2)Man(a1-3)Man
# Procedure, shortened: as §1
# [23] = target: Man(a1-2)Man(a1-2)Man(a1-3)[Man(a1-2)Man(a1-3)[Man(a1-2)Man(a1-6)]Man(a1-6)]Man(b1-4)GlcNAc(b1-4)GlcNAc
# Procedure, shortened: as §1
# [24] = target: Man(a1-2)Man(a1-2)Man(a1-3)[Man(a1-2)Man(a1-6)[Man(a1-3)]Man(a1-6)]Man(b1-4)GlcNAc(b1-4)GlcNAc
# Procedure, shortened: as §1
# [25] = target: Man(a1-2)Man(a1-2)Man(a1-6)[Man(a1-3)]Man
# Procedure, shortened: as §1
# Man(a1-2)Man(a1-3)Man = target: Man(a1-2)Man(a1-3)Man
# Procedure, shortened: as §1
# [26] = target: Man(a1-2)Man(a1-3)[Man(a1-2)Man(a1-6)]Man
# Procedure, shortened: as §1
# [27] = target: Man(a1-2)Man(a1-3)[Man(a1-3)[Man(a1-6)]Man(a1-6)]Man(b1-4)GlcNAc(b1-4)GlcNAc
# Procedure, shortened: as §1
# [28] = target: Man(a1-2)Man(a1-3)[Man(a1-6)]Man(a1-6)[Man(a1-2)Man(a1-3)]Man(b1-4)GlcNAc(b1-4)GlcNAc
# Procedure, shortened: as §1
# Man(a1-3)[Man(a1-6)]Man = target: Man(a1-3)[Man(a1-6)]Man
# Procedure, shortened: as §1
binder,measurement,setting,value
LEA (Lycopersicon esculentum) (protein) NEVFDVPMNETIGVESINASVGGYPRCGAQGDGGNCPSGMCCSVWGWCGKTYGYCAPQNCQKQCPAPYPEGRCGWQADGKSCPNGKCCSYGGWCGTTSDYCARQNCQKQCILPSPPPPPPPPPGFPRPECGLQKNGERCTKPGECCSIWGLCGATYKYCDPQHCQKQCSAPFPPGRCGWQADGRPCPTGQCCSFSGWCGTTSAHCTYPQCVSQCNDPRFPSSLNNRIQSFML,glycan array binding signal (z-score),[1],0.621
same,glycan array binding signal (z-score),[2],-0.54
same,glycan array binding signal (z-score),[3],-0.455
same,glycan array binding signal (z-score),Gal3S(b1-3)GalNAc,-0.526
same,glycan array binding signal (z-score),Gal3S(b1-3)GlcNAc,-0.518
same,glycan array binding signal (z-score),[4],-0.518
same,glycan array binding signal (z-score),Gal3S(b1-4)Glc,-0.511
same,glycan array binding signal (z-score),Gal3S(b1-4)Glc6S,-0.461
same,glycan array binding signal (z-score),Gal3S(b1-4)GlcNAc,1.76
same,glycan array binding signal (z-score),Gal3S(b1-4)GlcNAc6S,1.54
same,glycan array binding signal (z-score),Gal3S6S(b1-4)GlcNAc,-0.485
same,glycan array binding signal (z-score),Gal3S6S(b1-4)GlcNAc6S,-0.22
same,glycan array binding signal (z-score),Gal4S(b1-4)GlcNAc,2.18
same,glycan array binding signal (z-score),Gal4S6S(b1-4)GlcNAc,-0.461
same,glycan array binding signal (z-score),Gal6S(b1-4)Glc,-0.518
same,glycan array binding signal (z-score),Gal6S(b1-4)Glc6S,-0.441
same,glycan array binding signal (z-score),Gal6S(b1-4)GlcNAc,-0.444
same,glycan array binding signal (z-score),GalNAc(a1-3)Gal,-0.541
same,glycan array binding signal (z-score),GalNAc(a1-3)GalNAc,-0.553
same,glycan array binding signal (z-score),[5],2.55
same,glycan array binding signal (z-score),GalNAc(b1-4)GlcNAc,1.91
same,glycan array binding signal (z-score),Glc(a1-4)Glc,-0.525
same,glycan array binding signal (z-score),Glc(a1-6)Glc(a1-6)Glc,-0.531
same,glycan array binding signal (z-score),Glc(b1-4)Glc,-0.54
same,glycan array binding signal (z-score),Glc(b1-6)Glc,-0.059
same,glycan array binding signal (z-score),GlcA(b1-3)Gal,-0.547
same,glycan array binding signal (z-score),GlcA(b1-6)Gal,-0.555
same,glycan array binding signal (z-score),[6],2.03
same,glycan array binding signal (z-score),[7],-0.549
same,glycan array binding signal (z-score),[8],-0.555
same,glycan array binding signal (z-score),[9],-0.512
same,glycan array binding signal (z-score),GlcNAc(b1-3)Gal,-0.567
same,glycan array binding signal (z-score),[10],-0.526
same,glycan array binding signal (z-score),GlcNAc(b1-3)Gal(b1-4)Glc,-0.555
same,glycan array binding signal (z-score),[11],0.822
same,glycan array binding signal (z-score),[12],2.13
same,glycan array binding signal (z-score),GlcNAc(b1-3)GalNAc,-0.562
same,glycan array binding signal (z-score),[13],-0.551
same,glycan array binding signal (z-score),[14],-0.526
same,glycan array binding signal (z-score),[15],-0.566
same,glycan array binding signal (z-score),[16],1.96
same,glycan array binding signal (z-score),[17],1.38
same,glycan array binding signal (z-score),[18],2
same,glycan array binding signal (z-score),[19],2.26
same,glycan array binding signal (z-score),[20],-0.553
same,glycan array binding signal (z-score),[21],-0.492
same,glycan array binding signal (z-score),GlcNAc(b1-6)GalNAc,-0.545
same,glycan array binding signal (z-score),Kdn(a2-3)Gal(b1-3)GlcNAc,-0.443
same,glycan array binding signal (z-score),Kdn(a2-3)Gal(b1-4)GlcNAc,1.6
same,glycan array binding signal (z-score),[22],-0.419
same,glycan array binding signal (z-score),[23],-0.426
same,glycan array binding signal (z-score),[24],-0.336
same,glycan array binding signal (z-score),[25],-0.296
same,glycan array binding signal (z-score),Man(a1-2)Man(a1-3)Man,-0.54
same,glycan array binding signal (z-score),[26],-0.556
same,glycan array binding signal (z-score),[27],1.57
same,glycan array binding signal (z-score),[28],0.069
same,glycan array binding signal (z-score),Man(a1-3)[Man(a1-6)]Man,-0.539
